{"source": "PubChem BioAssay AID1347073", "about": "(National Center for Advancing Translational Sciences (NCATS), 2019)", "note": "The whole screen tested about 45,000 compounds, of which about 200 (0.44%) were called active. Another 7% or so got no clear call; they are omitted. Calls come from the whole dose curve; as a rule, active = well fitted activation curve with a large enough effect; inconclusive = small, poorly fitted or top-dose-only effect; inactive = no such curve, though single readings can be large or run the other way. The list shows a part of the results.", "data": [{"assay": "qHTS of TDP-43 Inhibitors: NCGC Sytravon Library Screen; note: 0% is about no effect; nearly all actives have a fitted effect of over 55% in size", "conditions": "yeast TDP-43 toxicity rescue, BacTiter-Glo growth, 24 h; series mostly up to 46.1 µM; growth rescue (activation): at the top concentration", "method_in_brief": "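TDP-43-expressing yeast, pregrown in raffinose, seeded at OD600 0.02 in galactose medium with compound for 24 hr at 30 deg C. Growth read by BacTiter-Glo luminescence, so rescue of toxicity appears as activation.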", "values": [{"compound": "Cc1ccc(CNC(=O)c2coc(=O)c3ccccc23)o1", "growth rescue (activation)": "inactive: 41.1%"}, {"compound": "Cc1ccc(-c2ccc(S(=O)(=O)N3CCCC3)cc2)cc1", "growth rescue (activation)": "inactive: 6.66%"}, {"compound": "COc1ccccc1/C=C1\\SC(=S)N(CCC(=O)Nc2cc(C)on2)C1=O", "growth rescue (activation)": "inactive: 16.9%"}, {"compound": "CSc1ccccc1Sc1cc(C(=O)O)c2ccccc2n1", "growth rescue (activation)": "inactive: 18.7%"}, {"compound": "O=c1[nH]c(CN2CCN(S(=O)(=O)c3ccc(Cl)cc3)CC2)nc2cc(Cl)ccc12", "growth rescue (activation)": "inactive: 15.1%"}, {"compound": "COc1ccc(C(NC(=O)C(C)C)c2ccc3cccnc3c2O)cc1", "note": "(centres undefined)", "growth rescue (activation)": "inactive: -37.2%"}, {"compound": "CCc1nc2ccccc2n1CC(=O)Nc1cc(C)on1", "growth rescue (activation)": "inactive: -9.18%"}, {"compound": "CCN(CC)C(=O)c1cccc(-c2csc(C(O)c3ccc(F)cc3)n2)c1", "note": "(centres undefined)", "growth rescue (activation)": "inactive: 10.7%"}, {"compound": "COc1ccc(OC)c(NC(=O)CN(C)CCOc2ccc(Br)cc2)c1", "growth rescue (activation)": "inactive: -14.4%"}, {"compound": "CCCCCn1c(=O)c(-c2nc3ccccc3[nH]2)c(O)c2ccccc21", "growth rescue (activation)": "inactive: 3.4%"}, {"compound": "Cc1nc(SCC(=O)O)c(C#N)c(C)c1CC(=O)c1ccccc1", "growth rescue (activation)": "inactive: 0.296%"}, {"compound": "Cn1c(NCCOc2ccccc2Cl)nc2cc(-c3ccc(F)cc3)sc2c1=O", "growth rescue (activation)": "inactive: 5.88%"}, {"compound": "COc1cc(CNc2ccc3c(c2)OCCO3)ccc1OCC(N)=O", "growth rescue (activation)": "inactive: 7.79%"}, {"compound": "Cc1cc(OCC(=O)NCCN2CCOCC2)cc(C)c1Cl", "growth rescue (activation)": "inactive: -2.82%"}, {"compound": "CC(=O)c1cccc(NC(=O)CSc2nnc(C(C)N(C)C)n2-c2ccc(F)cc2)c1", "note": "(centres undefined)", "growth rescue (activation)": "inactive: 23.5%"}, {"compound": "CC(=O)Nc1ccc(S(=O)(=O)NCCCN2CCOCC2)cc1", "growth rescue (activation)": "inactive: -13.4%"}, {"compound": "N#C/C(=C\\c1cn(Cc2ccc(F)cc2)c2ccccc12)C(=O)NCc1ccco1", "growth rescue (activation)": "inactive: -8.13%"}, {"compound": "COc1ccc(-c2cc(C(F)(F)F)nc(-n3ccnc3)n2)cc1", "growth rescue (activation)": "inactive: 3.3%"}, {"compound": "O=C(N/N=C/c1ccccn1)c1cccs1", "growth rescue (activation)": "inactive: -7.34%"}, {"compound": "Cc1noc(C)c1S(=O)(=O)NC(=O)C1(C)CCN1C(=O)Cc1ccc(-c2ccccc2)cc1", "note": "(centres undefined)", "growth rescue (activation)": "inactive: 20.4%"}, {"compound": "Cc1cc(C(=O)NC(=S)Nc2cccc(NC(=O)C(C)C)c2)ccc1[N+](=O)[O-]", "growth rescue (activation)": "inactive: -25.8%"}, {"compound": "COc1ccc2c(C)cc(SCC(=O)Nc3nsc(-c4ccccc4C)n3)nc2c1", "growth rescue (activation)": "inactive: 4.55%"}, {"compound": "CC(C)OC(=O)CN1C(=O)c2ccccc2C1=O", "growth rescue (activation)": "inactive: -9.43%"}, {"compound": "CC(C)CC(N=Cc1c(O)c2ccccc2oc1=O)C(=O)O", "note": "(centres undefined)", "growth rescue (activation)": "inactive: 1.7%"}, {"compound": "COc1ccc(/C=N/Nc2nnc(Cc3ccccc3)c(=O)[nH]2)cc1", "growth rescue (activation)": "inactive: 1.92%"}, {"compound": "Cc1cccc(Nc2nc(CC(=O)O)cs2)c1", "growth rescue (activation)": "inactive: 11.7%"}, {"compound": "S=C(NCCc1c[nH]c2ccccc12)NC1CCCC1", "growth rescue (activation)": "inactive: 6.11%"}, {"compound": "COc1ccccc1Nc1nnc(SCc2nnc(-c3cc(OC)c(OC)c(OC)c3)o2)s1", "growth rescue (activation)": "inactive: 2.59%"}, {"compound": "Cc1ccccc1C(=O)NNS(=O)(=O)c1cccc([N+](=O)[O-])c1", "growth rescue (activation)": "inactive: 7.52%"}, {"compound": "COC(=O)C1=C(C)NC(C)=C(C(=O)OC)C1C(=O)OC(C)C(=O)c1ccccc1", "note": "(centres undefined)", "growth rescue (activation)": "inactive: 4.13%"}, {"compound": "Cc1ccccc1NC(=O)C(C)Sc1nnc(-c2ccncc2)n1CC1CCCO1", "note": "(centres undefined)", "growth rescue (activation)": "inactive: -19.4%"}, {"compound": "COc1cccc(NC(=S)N2CCCC2c2ccc(OC)c(OC)c2)c1", "note": "(centres undefined)", "growth rescue (activation)": "inactive: 9.5%"}, {"compound": "CCOP(=O)(c1ccc(N(C)C)cc1)C(O)c1ccc(OC)cc1", "note": "(centres undefined)", "growth rescue (activation)": "inactive: 0.471%"}, {"compound": "COC(=O)c1c(-c2ccccc2Cl)noc1-c1cnc(N)nc1C(F)(F)F", "growth rescue (activation)": "inactive: 9.01%"}, {"compound": "COc1ccccc1C(=O)Nc1ccc(S(=O)(=O)NC2=NCCCCC2)cc1", "growth rescue (activation)": "inactive: 14.5%"}, {"compound": "O=C(OC1CCOC1=O)c1ccc(N2CCCC2)c([N+](=O)[O-])c1", "note": "(centres undefined)", "growth rescue (activation)": "inactive: 15.2%"}, {"compound": "O=C(CCCSc1ccccc1)Nc1cccc(CO)c1", "growth rescue (activation)": "inactive: 13.8%"}, {"compound": "Cc1ccc(C)c(N(C(=O)CNC(=O)c2ccco2)C(C(=O)NC2CCCCC2)c2ccncc2)c1", "note": "(centres undefined)", "growth rescue (activation)": "inactive: 1.86%"}, {"compound": "O=C(Nc1ccc(S(=O)(=O)N2CCCC2)cc1)c1cnccn1", "growth rescue (activation)": "inactive: 3.94%"}, {"compound": "CCOC(=O)/C(C#N)=C/c1cn(CCC(=O)O)nc1-c1ccccc1", "growth rescue (activation)": "inactive: 8.06%"}, {"compound": "CCc1nnc(NC(=O)c2c(-c3ccccc3)noc2C)s1", "growth rescue (activation)": "inactive: 0.663%"}, {"compound": "COc1ccccc1OCc1ccc(C(=O)NC(C)(C)C)o1", "growth rescue (activation)": "inactive: 21.5%"}, {"compound": "CC(=O)c1cccc(-c2ccnc3c2CC(C(=O)N2CCN(C)CC2)O3)c1", "note": "(centres undefined)", "growth rescue (activation)": "inactive: -1.46%"}, {"compound": "Cc1csc(NC(=O)c2sccc2C)n1", "growth rescue (activation)": "inactive: 8.87%"}, {"compound": "O=C1COc2ccc(S(=O)(=O)Nc3ccc4c(c3)OCO4)cc2N1", "growth rescue (activation)": "inactive: 0.397%"}, {"compound": "O=C(CCN1C(=O)C2C3C=CC(C4CC34)C2C1=O)Oc1ccc(Br)cc1", "note": "(centres undefined)", "growth rescue (activation)": "inactive: -4.01%"}, {"compound": "O=C(CC1SC(=O)N(Cc2ccccc2Cl)C1=O)Nc1nccs1", "note": "(centres undefined)", "growth rescue (activation)": "inactive: 28.8%"}, {"compound": "CCCCN(CCCC)CCNC(=O)c1ccc2nc(-c3ccccc3NC(C)=O)c(=O)[nH]c2c1", "growth rescue (activation)": "inactive: 1.59%"}, {"compound": "Cc1cc(=O)[nH]c(SC(C)C(=O)Nc2cccc3ccccc23)n1", "note": "(centres undefined)", "growth rescue (activation)": "inactive: -7.48%"}, {"compound": "CCN(c1ccccc1)S(=O)(=O)c1ccc(OC)c(NC(=O)CNCC(C)O)c1", "note": "(centres undefined)", "growth rescue (activation)": "inactive: 2.43%"}, {"compound": "CCOc1ccc(S(=O)(=O)N2CCN(Cc3ccc4c(c3)OCO4)CC2)cc1C", "growth rescue (activation)": "inactive: -3.56%"}, {"compound": "OCCC1CN(Cc2cccc3c2OCO3)CCN1C1CCCC1", "note": "(centres undefined)", "growth rescue (activation)": "inactive: 17.1%"}, {"compound": "O=C(O)c1cccc(S(=O)(=O)Nc2ccc(O)c(Sc3nc4ccccc4s3)c2)c1", "growth rescue (activation)": "inactive: 5.44%"}, {"compound": "N#C/C(=C/c1ccc(-c2ccc(S(N)(=O)=O)cc2)o1)c1nc2ccccc2s1", "growth rescue (activation)": "inactive: -13.5%"}]}]}
